The structures appear in SMILES notation. The whole screen tested about 310,000 compounds, of which about 2,200 (0.71%) showed an effect of 50% or more. The effect is printed as a negative number. Some of the results follow.

Experimental findings from paper PMC4336329 (PLoS ONE, 2015) are described below.

Chain of human ether-à-go-go-related gene (hERG) potassium channel (Q12809 whole entry, looked up): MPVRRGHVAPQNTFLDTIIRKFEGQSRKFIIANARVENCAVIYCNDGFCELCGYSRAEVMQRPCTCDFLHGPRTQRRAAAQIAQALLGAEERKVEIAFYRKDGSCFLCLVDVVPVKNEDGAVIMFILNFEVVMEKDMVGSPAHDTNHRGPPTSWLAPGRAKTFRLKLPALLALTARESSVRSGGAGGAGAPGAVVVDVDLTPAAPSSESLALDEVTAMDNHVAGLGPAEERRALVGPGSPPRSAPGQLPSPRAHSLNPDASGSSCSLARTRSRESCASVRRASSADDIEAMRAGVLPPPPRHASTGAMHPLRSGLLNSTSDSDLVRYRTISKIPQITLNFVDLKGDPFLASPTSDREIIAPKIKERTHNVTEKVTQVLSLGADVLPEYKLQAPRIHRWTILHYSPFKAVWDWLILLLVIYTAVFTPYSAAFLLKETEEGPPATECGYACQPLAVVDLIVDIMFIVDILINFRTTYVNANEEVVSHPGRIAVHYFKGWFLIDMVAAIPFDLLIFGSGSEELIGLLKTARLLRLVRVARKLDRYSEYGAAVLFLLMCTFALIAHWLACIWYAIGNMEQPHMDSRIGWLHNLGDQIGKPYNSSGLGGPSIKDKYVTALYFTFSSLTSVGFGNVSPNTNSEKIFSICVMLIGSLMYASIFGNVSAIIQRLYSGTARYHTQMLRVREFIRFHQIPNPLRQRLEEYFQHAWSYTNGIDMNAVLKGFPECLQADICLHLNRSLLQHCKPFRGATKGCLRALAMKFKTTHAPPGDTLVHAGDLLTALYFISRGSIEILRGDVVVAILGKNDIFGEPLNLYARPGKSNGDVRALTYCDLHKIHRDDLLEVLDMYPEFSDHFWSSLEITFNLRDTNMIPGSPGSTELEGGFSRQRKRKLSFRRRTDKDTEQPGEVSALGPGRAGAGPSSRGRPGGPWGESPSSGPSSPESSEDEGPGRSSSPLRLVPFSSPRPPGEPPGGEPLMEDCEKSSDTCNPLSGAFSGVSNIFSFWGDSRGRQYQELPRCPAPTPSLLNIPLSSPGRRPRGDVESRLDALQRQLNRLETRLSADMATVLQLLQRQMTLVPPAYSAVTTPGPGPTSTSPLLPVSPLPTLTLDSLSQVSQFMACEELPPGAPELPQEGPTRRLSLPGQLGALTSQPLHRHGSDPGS

This experiment concerns the target human ether-à-go-go-related gene (hERG) potassium channel (human, UniProt Q12809). Description: primary screen, population patch clamp on CHO cells stably expressing hERG.
Turning to `O=C(Nc1nc2ccccc2[nH]1)c1ccc(Cl)cc1`, the “hERG current change (%, negative = inhibition) at 1uM” value was 14.9%.

Consider `CC(NC(=O)C1CCC1)c1ccc(Br)cc1` (stereo not shown), for which the “hERG current change (%, negative = inhibition) at 1uM” value was -2.26%.

With `O=C(COc1ccccc1Cl)Nc1cccc(S(=O)(=O)NC2=NCCCCC2)c1`, the “hERG current change (%, negative = inhibition) at 1uM” value stood at 14.6%.

As for `COc1cc(NC(=S)N2CCN(C(=O)c3ccco3)CC2)c(OC)cc1Cl`, the “hERG current change (%, negative = inhibition) at 1uM” value is -2.61%.

For the compound `O=C(COC(=O)/C=C/c1ccc(S(=O)(=O)N2CCOCC2)cc1)NCc1ccc(Cl)cc1`, the “hERG current change (%, negative = inhibition) at 1uM” value was determined as 7.11%.

In the case of `Cc1ccc(C)c(NS(=O)(=O)c2ccc3c(c2)NC(=O)CO3)c1`, the “hERG current change (%, negative = inhibition) at 1uM” value was determined as 5.73%.

For `Cc1ccc(C2C(C#N)=C(N)Oc3n[nH]c(-c4ccccc4)c32)o1` (stereo not shown), the “hERG current change (%, negative = inhibition) at 1uM” value worked out at 9.45%.

With `Cc1cc(Br)ccc1NC(=O)CNC(=O)COc1ccccc1C`, the “hERG current change (%, negative = inhibition) at 1uM” value is 6.77%.

Take `O=C(NCc1ccncc1)C(=O)NC1CC1`: the “hERG current change (%, negative = inhibition) at 1uM” value is listed as 12.1%.

With `COC(=O)C1=C(C)N(c2ccc(C)cc2)/C(=C/c2ccc(O)cc2)C1=O`, the “hERG current change (%, negative = inhibition) at 1uM” value was found to be 18%.

Turning to `Cc1ccc(C)c(S(=O)(=O)Nc2ccc(O)c3ccccc23)c1`, the “hERG current change (%, negative = inhibition) at 1uM” value was -3.49%.

Turning to `CN(C)c1ccc(NC(=S)NCC2CCCO2)cc1` (stereo not shown), the “hERG current change (%, negative = inhibition) at 1uM” value was 8.44%.

Consider `O=C(Nc1ccccc1)c1cccc(S(=O)(=O)Oc2ccc([N+](=O)[O-])cc2)c1`, for which the “hERG current change (%, negative = inhibition) at 1uM” value is -39%.

On to `CCOC(=O)[C@H]1[C@H]2COc3ccc(C)cc3[C@@H]2N2C(=O)CN(Cc3ccco3)C(=O)[C@@]12C`, for which the “hERG current change (%, negative = inhibition) at 1uM” value stood at 8.91%.

Consider `Cc1noc(C)c1C(=O)OCC(=O)C12CC3CC(CC(C3)C1)C2`, for which the “hERG current change (%, negative = inhibition) at 1uM” value was 1.11%.

Turning to `CCOC(=O)c1cncn1[C@H](C)c1ccccc1`, the “hERG current change (%, negative = inhibition) at 1uM” value came to 7.06%.

In the case of `CC(Sc1nc(NCc2ccccc2)nc(N2CCOCC2)n1)C(=O)Nc1ccccc1` (stereo not shown), the “hERG current change (%, negative = inhibition) at 1uM” value is recorded as 6.63%.

Take `S=c1[nH]nc(-c2ccccc2)o1`: the “hERG current change (%, negative = inhibition) at 1uM” value worked out at 9.33%.

For the compound `C[C@@H]1C[C@@H]2OC(=O)[C@]3(C)[C@H]2[C@@H](OC3(C)O)[C@]2(C)C(=O)CC[C@H]12` (stereo partly shown), the “hERG current change (%, negative = inhibition) at 1uM” value is given as 5.7%.

`Cc1c(Cl)cccc1NS(=O)(=O)c1ccc(-c2ccc(=O)[nH]n2)o1`: the “hERG current change (%, negative = inhibition) at 1uM” value is 18.6%.

As to `CCOC(=O)Nc1ccc(S(=O)(=O)Nc2nc(C)cc(C)n2)cc1`, the “hERG current change (%, negative = inhibition) at 1uM” value was -16.2%.

As for `O=C(O)C(=O)O.O=C(c1ccccc1)c1ccc(OCCCN2CCCC2)cc1`, the “hERG current change (%, negative = inhibition) at 1uM” value is listed as -29.9%.

Take `COc1cc(/C=N/NC(=O)CCC(=O)NCc2ccccc2)cc(OC)c1OC`: the “hERG current change (%, negative = inhibition) at 1uM” value was determined as 6.17%.

For the compound `CC(=O)Nc1ccc(S(=O)(=O)N2CCCC(C(=O)O)C2)cc1` (stereo not shown), the “hERG current change (%, negative = inhibition) at 1uM” value is listed as 2.62%.

On to `N#C/C(=C/c1ccc(OCc2ccccc2)cc1)C(=O)NC1CCCCC1`, for which the “hERG current change (%, negative = inhibition) at 1uM” value amounted to 9.04%.

Regarding `Cc1cnc(C(=O)OCC(=O)c2ccc(F)c(F)c2)cn1`, the “hERG current change (%, negative = inhibition) at 1uM” value is on record as 12%.

In the case of `CCOc1ccc(N(CC(=O)O)S(=O)(=O)c2ccc(OC)c(OC)c2)cc1`, the “hERG current change (%, negative = inhibition) at 1uM” value is 9.21%.

On to `COc1ccccc1N1CCN(CC(O)COc2ccc(S(=O)(=O)N3CCOCC3)cc2)CC1.Cl` (stereo not shown), for which the “hERG current change (%, negative = inhibition) at 1uM” value is 7.63%.

Turning to `CCOC(=O)c1cc(S(=O)(=O)N2CCN(C(=O)OCC)CC2)cn1C`, the “hERG current change (%, negative = inhibition) at 1uM” value came out at 8.69%.

Turning to `Cc1ccc(CNC(=O)c2nnn(-c3cccc(C)c3)c2N)cc1`, the “hERG current change (%, negative = inhibition) at 1uM” value was -5.66%.

Take `O=C(COC(=O)Cc1ccc(Cl)c(Cl)c1)Nc1ccc2[nH]c(=O)[nH]c2c1`: the “hERG current change (%, negative = inhibition) at 1uM” value came to 6.44%.

Consider `CCOc1cc(CNCCCN2CCOCC2)ccc1OCC(=O)NC(C)(C)C.Cl`, for which the “hERG current change (%, negative = inhibition) at 1uM” value is listed as 9.51%.

Consider `O=C1CC2(CC(c3ccc(Cl)cc3)=NO2)C(=O)N1c1ccccc1` (stereo not shown), for which the “hERG current change (%, negative = inhibition) at 1uM” value amounted to 5.02%.

`CC(=O)c1cc2c(cc1N/C(=N/S(=O)(=O)c1ccc(C)cc1)c1ccc(Cl)cc1)OCO2`: the “hERG current change (%, negative = inhibition) at 1uM” value amounted to 11.6%.

As to `Cc1c(Cl)cccc1NC(=S)NCCc1ccccn1`, the “hERG current change (%, negative = inhibition) at 1uM” value amounted to 9.98%.

On to `Nc1cccc2c1C(=O)N(CCOc1ccc(F)cc1)C2=O`, for which the “hERG current change (%, negative = inhibition) at 1uM” value is on record as 7.35%.

In the case of `O=C(CCSc1nnc2ccc3ccccc3n12)Nc1ccc(F)cc1`, the “hERG current change (%, negative = inhibition) at 1uM” value came out at 8.44%.

Take `COc1cccc(CN2CC(C(=O)NCCCc3ccncc3)CCC2=O)c1` (stereo not shown): the “hERG current change (%, negative = inhibition) at 1uM” value was found to be 21.4%.

Regarding `Cc1ccc(C)c(NC(=O)CSc2nnc(-c3ccco3)o2)c1`, the “hERG current change (%, negative = inhibition) at 1uM” value was 3.71%.

For the compound `CC1CCN(C(=O)c2ccccc2NC(=O)Nc2ccccc2)CC1`, the “hERG current change (%, negative = inhibition) at 1uM” value is -0.689%.

For `CCC(C)(C)n1nnnc1C(c1ccncc1)N1CCC(C)CC1` (stereo not shown), the “hERG current change (%, negative = inhibition) at 1uM” value is reported as -0.168%.

Take `CC(=O)c1ccc(-c2ccc(C(=O)N(C)c3c(N)n(Cc4ccccc4)c(=O)[nH]c3=O)o2)cc1`: the “hERG current change (%, negative = inhibition) at 1uM” value was -2.54%.

With `CC(C)NS(=O)(=O)c1ccc(OCC(=O)N2CCN(Cc3ccccc3)CC2)c(Cl)c1`, the “hERG current change (%, negative = inhibition) at 1uM” value is 9.36%.

On to `CC(C)(C)C1CCC2(CC1)SCC(=O)N2c1ccccc1` (stereo not shown), for which the “hERG current change (%, negative = inhibition) at 1uM” value worked out at 16.8%.

Take `CC(C)N1CCc2c(sc(NC(=O)c3ccc(S(=O)(=O)N4CCOCC4)cc3)c2C(N)=O)C1`: the “hERG current change (%, negative = inhibition) at 1uM” value is given as 2.73%.

As for `COc1ccc(C(=O)N/C(=C\c2cn(C)c3ccccc23)C(=O)N2CCOCC2)cc1OC`, the “hERG current change (%, negative = inhibition) at 1uM” value stood at 18.8%.

As for `CCC1(c2ccccc2)NC(=O)N(CC(=O)Nc2ccccc2C(=O)NC2CC2)C1=O` (stereo not shown), the “hERG current change (%, negative = inhibition) at 1uM” value was found to be 9.37%.

With `CN(C)N1C(=O)CC(N2CCCC2)C1=O.Cl` (stereo not shown), the “hERG current change (%, negative = inhibition) at 1uM” value was determined as 7.98%.

For `COc1cc(NC(=O)CCC(=O)c2cccs2)cc(OC)c1`, the “hERG current change (%, negative = inhibition) at 1uM” value is reported as 9.44%.

Consider `CC(C)(C)SCCNC(=O)c1ccc(CN2CCc3ccccc3C2)cc1`, for which the “hERG current change (%, negative = inhibition) at 1uM” value is recorded as 13.2%.

For the compound `CS(=O)(=O)N(CC(=O)NCc1ccccc1Cl)c1cccc([N+](=O)[O-])c1`, the “hERG current change (%, negative = inhibition) at 1uM” value is -0.378%.

`O=C(NCc1ccco1)/C(=C/c1ccccc1)NC(=O)c1ccco1`: the “hERG current change (%, negative = inhibition) at 1uM” value is 10.1%.

Turning to `COc1ccc(C(CC(=O)O)NC(=O)COc2cc(C)ccc2C)cc1OC` (stereo not shown), the “hERG current change (%, negative = inhibition) at 1uM” value turned out to be 11.4%.

`Cc1cc(C(=O)N2CCN(Cc3ccc4c(c3)OCO4)CC2)on1`: the “hERG current change (%, negative = inhibition) at 1uM” value is 6.09%.

Regarding `Cc1ccc(CC(=O)NC2CCCc3ccccc32)cc1C` (stereo not shown), the “hERG current change (%, negative = inhibition) at 1uM” value is given as -6.48%.
